# Paper PMC12136788
# Some of the results follow.
# B1: chr1:213302989:213302990:+_ENSG00000136643_ENST00000366960|hu_mus|FALSE|FALSE (ssRNA)
# RNA: GGGAGUUCUACAGUCCGACGAUCAGAAGCAACAGCCCCUACUGCCGAAGAAUCCGUAGACAGACUCAGACCAAAGGUUCUACUGGGAGAACCCUGACGGGAAGCCAUUCCAUCAUCUACCUCGGCAAGAGAGUCUGCAUCAACCAACAGAGGAUUGAGCAUCA
# B2: chr7:149068622:149068623:-_ENSMUSG00000025139_ENSMUST00000001950|mus_hu|mus_mus_mus_hu_False|58_108 (ssRNA)
# RNA: GGGAGUUCUACAGUCCGACGAUCGUGCAGGUACUGAGUGUGGCUUGUGGUCUGUCCUGGGUUAGAGUUGUUAAUAUCACUAAGUGGACCAUCUAGAACGUUCCAGUCCCGCCUGACACCUUCAUUCCCAAUGGAGAAGAAAUCCAACAGAGGAUUGAGCAUCA
# B3: 187079632_187082414_1919_3pUTR_ENSMUSG00000039318_ENSMUST00000069652|mouse|control|control (ssRNA)
# RNA: GGGAGUUCUACAGUCCGACGAUCACAAAACUGUAGCAGUCCUUCAUCAACAGACUCAAGCUCUUGGUUUUUUAAAGUGUCCAUUAAAGUCUGAGUAACAUUUCUAAGGCAGGAAAACGAUAAACGGUCACUGGCCAAAAUGCUCAACAGAGGAUUGAGCAUCA
# B4: chr5:23655024:23655025:+_ENSMUSG00000028986_ENSMUST00000030841|mus_hu|motif|central (ssRNA)
# RNA: GGGAGUUCUACAGUCCGACGAUCAUUAUAGCAGUCCAUUCGCUUUAUUGGGAAAAGCUGAGAGCCUCCCAAAAUGUAUACGGCAUUGUCCCAAAACACGCAUGCUGCAUCUCUUCGUUUUUCAAAGGGGCAGCGGAUGUCUGUCAACAGAGGAUUGAGCAUCA
# B5: chrX:102632674:102632675:+_ENSG00000166681_ENST00000361298|hu_hu|FALSE|FALSE (ssRNA)
# RNA: GGGAGUUCUACAGUCCGACGAUCGUGAUUAGAGAGCUCCCCCAUAAGGAUACGCAGACAAUUCCUCAACUGCAGCUCCCUAAGUUUUCUUCUGAUUUCUCUCAUCUCCUCCAUGAAUAUUUCCAUAUCAUCUCCAUCUCCACCCAACAGAGGAUUGAGCAUCA
# B6: chr10:5788261:5788262:+_ENSG00000108021_ENST00000328090|hu_hu|FALSE|FALSE (ssRNA)
# RNA: GGGAGUUCUACAGUCCGACGAUCGUAAGUCCUGGUGAAUGUGGCUUGAGUAACAGUGCCACUGUAAGAAGCCACUCUUGUGCUAUCCAGUGGCUGAACAAUUUCUUCUUCACUAGGAACAGAAGGUCCAUUAGUUUGUGUACUCAACAGAGGAUUGAGCAUCA
# B7: 5094788_5094908_1562_3pUTR_ENSMUSG00000020393_ENSMUST00000020662|mouse|control|control (ssRNA)
# RNA: GGGAGUUCUACAGUCCGACGAUCAGCAGCCAGGCUGGUACAUGUGAUGGAGGAUCCCAGGCUGGGCUGCCUCUAAAGCAGGGUGCUCCCAAAAGAGAUGGUGGUGAAUGGGAAGGCAGGGAACUCAUCAGAGGAGAACUCAGGCAACAGAGGAUUGAGCAUCA
# B8: chr1:6239374:6239375:+_ENSMUSG00000025907_ENSMUST00000027040|mus_mus|motif|central (ssRNA)
# RNA: GGGAGUUCUACAGUCCGACGAUCCUCCUGUGUGUGCCUGAUGUGCAGUGUGUCCUCUAAUUCCUUCAGGUGAUUUUGUUCGGAGCACUGAAAUUCAGCUCUCAAUGACUCGAUUUUUUCAUCAUGCAGCUUUUUCAGGUCUUCCAACAGAGGAUUGAGCAUCA
# B9: chr8:9988343:9988344:+_ENSMUSG00000040396_ENSMUST00000048216|mus_mus|motif|central (ssRNA)
# RNA: GGGAGUUCUACAGUCCGACGAUCUGUUUUUGUCAUGUCUUCGGGAGAAUGACUCUUGAUCACUUCCUUGAUAAAUUGUUCGGGUGCAGUGAAGUAGCCUUGGCACUGCCAUGUGUCGUUGUGCGUCCCAUCUGGGAAAAUGGCCAACAGAGGAUUGAGCAUCA
# B10: 165204038_165204158_3870_3pUTR_ENSMUSG00000017667_ENSMUST00000103084|mouse|control|control (ssRNA)
# RNA: GGGAGUUCUACAGUCCGACGAUCUUGUGUGUGUGCAUGUUAUAUCACACUUGUGGAAAUCAGGGUAGCGUGUAAGAAAAUCAGUUCUCUCUAUUACGUGAGACGGAAGGUCUGAACUCGGGUUGUCAGGCUUGCCAGCAAGCACAACAGAGGAUUGAGCAUCA
# B11: 84634214_84644336_917_CDS_ENSG00000065615_ENST00000369681|human|control|control (ssRNA)
# RNA: GGGAGUUCUACAGUCCGACGAUCCUGGCACUUUCUGUAGUACAAACCUGUAUCUUUCCUUGGAAUAAGUGAAUUAUGAUUCUUCAGGGGAUGGCCAAGAAAGUCCCAAGAAGUAUUCUCUUUUUUUUGUAGAACAAUCUCUAUCAACAGAGGAUUGAGCAUCA
# B12: 13734483_13737013_542_CDS_ENSG00000101654_ENST00000262173|human|control|control (ssRNA)
# RNA: GGGAGUUCUACAGUCCGACGAUCUUCUCCAAUGAGAACACUUUUCAUCCAAUUAUUAAAGUUUCUUAGGUAAAAAAUACGACUUUGACUACGCUUCUCCAAACCAACUUCCUGAAGUUCAUUGUAAUGGGCAGCCACUGUUGACAACAGAGGAUUGAGCAUCA
# B13: chr7:66532262:66532263:+_ENSMUSG00000025326_ENSMUST00000107537|mus_mus|FALSE|FALSE (ssRNA)
# RNA: GGGAGUUCUACAGUCCGACGAUCUCCUUGAACUAGGCUGUAAAGAACAGUGAUUCUUCUUUCACUGUACAUGCGAAUUCUAUUGUCAUAAUAUAAUCCCAGAUUCUUUGUGACAGCAUUCAAUAUAAAGGGACAUGUCAUAAACAACAGAGGAUUGAGCAUCA
# B14: 89150025_89150145_181_3pUTR_ENSG00000065243_ENST00000370521|human|control|control (ssRNA)
# RNA: GGGAGUUCUACAGUCCGACGAUCAGGGAUUCAUGGAGGCGCAGCCCCUGCUGGAGGCGCGGCUUAUUCCGUCCGGUUCAUCGAGAGCGGCGGGGAGCUAGGGCACUCGUAGCGGGCUUCCUCUCGCCGCCCUCACCGGACUGUCAACAGAGGAUUGAGCAUCA
# B15: chr3:179287964:179287965:+_ENSG00000136518_ENST00000429709|hu_hu|hu_hu_hu_mus_True|1_1 (ssRNA)
# RNA: GGGAGUUCUACAGUCCGACGAUCCUUGAGUGGUGAGAUGGCCUCCAUGUUCUCCCUGGGCACGCGGAGGGCAUUGGUGUCUAUGUAGUAGGUGGGCCCGCCCUGCUUGCCUUUGUCACCAUCAAUCUCCAUCAUUGUGCUUCCCAACAGAGGAUUGAGCAUCA
# B16: chr1:46159212:46159213:+_ENSG00000159596_ENST00000372025|hu_mus|hu_hu_hu_mus_True|28_88 (ssRNA)
# RNA: GGGAGUUCUACAGUCCGACGAUCUCUGAUCCCUCCCAAGAAAGCUAGGAAACUGGCUCCAUAAGCCAUCUGAGUGAAAGCUAGGACGGGGAUAUAAGACUUUGUUAUCAGCAUGACAAGUGGGGGAGCAGUAAAGGGGAUUAACAACAGAGGAUUGAGCAUCA
# B17: chr4:53728692:53728693:+_ENSG00000128045_ENST00000248706|hu_mus|FALSE|FALSE (ssRNA)
# RNA: GGGAGUUCUACAGUCCGACGAUCCAGGCAGCAGUCGGCAGCGGUGCUGCCUGGGGCGGGGUACUCUGCGAUGGUACACAUGUUCUGGAUGAGGCGCAUCGCCGCUACGGCCCGGCUGCACGGAGCGGGGAGGAAAGUCAGGACCAACAGAGGAUUGAGCAUCA
# B18: 71651039_71651159_4769_CDS_ENSG00000075292_ENST00000264447|human|control|control (ssRNA)
# RNA: GGGAGUUCUACAGUCCGACGAUCGCUGUCAUCCCGUUUCAUGAUGGAAGGUCUAGCCUCUGUUUCCUGAGAUUGUUUUGUUAUAUCUCUGUAAUCCAGUUUAGAAAGCUUGCCUUGCAGGGCUGAGAUCCUUCCACUGCCUCCCAACAGAGGAUUGAGCAUCA
# B19: chr6:86333760:86333761:-_ENSG00000135316_ENST00000355238|hu_mus|FALSE|FALSE (ssRNA)
# RNA: GGGAGUUCUACAGUCCGACGAUCUUCCUCAAGAAUCUGCUCCUUGGUUUUACUCUUAGGAAUCGAGCCCACAAAAAGCCUAUUGUUGGCAACUGAGAUGCAGACACCAAUGUGCUUCCCGGAACGAAUUUCAUGAUUAUUAUACAACAGAGGAUUGAGCAUCA
# B20: chr2:29787112:29787113:+_ENSMUSG00000026790_ENSMUST00000113756|mus_mus|FALSE|FALSE (ssRNA)
# RNA: GGGAGUUCUACAGUCCGACGAUCGCAAUGAGAUAGGAAUUCUGAUUGUCAGGCCGGAUGGUCGUGAGGAACAAGUGGCCUAUAGGAAACAGACAUGGGAGGUUUCCCCGGGCACCAAGGAGAACACUGCUUCCUGCAGGACCCCAACAGAGGAUUGAGCAUCA
# B21: chr6:83927055:83927056:+_ENSMUSG00000030016_ENSMUST00000032088|mus_mus|motif|central (ssRNA)
# RNA: GGGAGUUCUACAGUCCGACGAUCUGUACUUUUUGCUUUAGGAGAAGAGACCACAGUAGCCUUGAUGCUUGAUUUACGGCGGUAUACAUUUGAUACAGUCAGCACACUACUUUUACCAGUUUCAUCAGGCUUACUGGUCUGAUCCAACAGAGGAUUGAGCAUCA
# B22: chr12:16048344:16048345:+_ENSG00000023734_ENST00000419869|hu_hu|hu_hu_hu_mus_True|8_58 (ssRNA)
# RNA: GGGAGUUCUACAGUCCGACGAUCAGAUCGUCCAUAAGUAAUAACCAAAAUCUCUCCUUCAGGAAUAUACUCCAUGCUACUAACAGACAUAUUAAAAUUCAGAGAUUUCACUUCUGUCAUUGUGGCAUGAUCCCAAAGCCGAACCAACAGAGGAUUGAGCAUCA
# Target: T1, UNK ZnF1-3 (human, UniProt Q9C0B0 31-174)
# T1 sequence: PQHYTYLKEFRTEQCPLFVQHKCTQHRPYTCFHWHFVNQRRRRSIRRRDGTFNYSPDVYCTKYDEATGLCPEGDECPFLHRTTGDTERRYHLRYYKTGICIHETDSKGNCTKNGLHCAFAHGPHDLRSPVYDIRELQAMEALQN
# Assay: nsRBNS (natural sequence RNA bind-n-seq); RBNS binding buffer (assumed for nsRBNS): 25 mM Tris pH 7.5, 150 mM KCl, 3 mM MgCl2, 0.01% Triton X-100, 500 ug/ml BSA, 20 U/ml SUPERase-In, 4 C; UNK is unkempt and MSI1 is Musashi-1; names of the RNAs are library labels; protein concentration not given here; high values mean tight binding
row,Binder,binding signal [enrichment R]
1,B1,1.48
2,B2,1.05
3,B3,0.854
4,B4,0.552
5,B5,0.921
6,B6,0.686
7,B7,1.71
8,B8,0.566
9,B9,0.722
10,B10,1.19
11,B11,0.802
12,B12,1.41
13,B13,0.599
14,B14,0.513
15,B15,0.64
16,B16,1.39
17,B17,1.44
18,B18,0.553
19,B19,1.14
20,B20,1.04
21,B21,0.684
22,B22,0.737
